From patent US20230346743A1, “COMBINATION CANCER THERAPIES” (The Board of Regents of the University of Oklahoma, priority 2018, published 2023)

Tested on: SKOV3 R248W p53
Test: cells
Conditions: Homo sapiens, SK-OV-3

`O=C1C2CCN(CC2)C1(CO)CO` [PRIMA-1, 2,2-Bishydroxymethyl-1-azabicyclo[2.2.2]octan-3-one] showed an IC50 of 20 µM.
